Sequences with one replicate were seen in a single cluster, so their values are uncertain.
system: ATP; assay: switch fluorescence ratio, 500 uM ATP over buffer (Cy3 cluster intensity, sum of 5 cycles each) (fold (ratio)); higher = stronger signal-on switching upon ATP binding; sequences stand for … in TCGTCGGCAGCGTCAGATGTGTATAAGAGACAGTTTTTTTTTTTTTTTTTTTTTTTTT…TC; settings: aptamer strand: ATP DNA aptamer (quencher-CACCTGGGGGAGTATTGCGGAGGAAGG + anchor), 100 nM annealed; ATP concentration: 500 uM; one replicate
Outline: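 Imaging in selection buffer was followed by imaging after 15 min with 500 uM ATP at 22 °C, for Cy3-labelled switching-strand clusters annealed to 100 nM quencher-labelled ATP aptamer on a modified Illumina MiSeq flow-cell. Five of these buffer/ATP cycles ran, separated by NaOH stripping and re-annealing. The fluorescence ratio per cluster is summed target-cycle over summed buffer-cycle Cy3 intensity, averaged per switch-domain sequence; clusters outside 100-1000 RFU were removed.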
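Further: ATP exposure 15 min at 22 °C before imaging.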

Sequence	switch fluorescence ratio
AGACAGTGAC	1.1
AGACCATCAC	1.11
AGACCGGTTT	0.955
AGACCGTAAA	1.51
AGACCGTGGC	1.02
AGACCTTTTG	0.958
AGACGCCTCG	1
AGACGGACCT	1.18
AGACGGGCAT	1.03
AGACGGGGAA	0.981
AGACGGGGG	1
AGACGGTCCT	1
AGACGTTAAA	1.04
AGACGTTGTC	0.98
AGACTAGTAG	0.975
AGACTGCCAG	0.987
AGACTGGGTA	0.981
AGACTGGTAG	0.966
AGACTGTTG	0.949
AGACTTCGCT	1.02
AGACTTTTCC	1.05
AGAGAATCAT	0.997
AGAGAATGC	0.976
AGAGACGAGG	1.01
AGAGAGAACA	0.982
AGAGAGCCTT	0.993

Sequence	switch fluorescence ratio
AGAGAGCTGG	1.02
AGAGAGGCGC	0.974
AGAGATTTAG	1.02
AGAGCAGTC	0.97
AGAGCATCCT	1.08
AGAGCCAAGG	0.979
AGAGCCCCA	1.01
AGAGCCGATG	1.03
AGAGCTTAAT	0.984
AGAGCTTGGA	0.999
AGAGCTTTCG	1
AGAGGAGCAC	1.18
AGAGGAGTAC	0.982
AGAGGATTGG	0.98
AGAGGCCTGG	0.967
AGAGGGGAAA	1
AGAGGGTATT	0.992
AGAGGGTGT	1.09
AGAGGTGCTT	1.07
AGAGGTTTT	0.969
AGAGTACTTG	0.974
AGAGTCAGCC	1.05
AGAGTCTAGC	0.879
AGAGTGGGCT	1.01
AGAGTTCTG	0.953
AGAGTTGGCA	1.01

Sequence	switch fluorescence ratio
AGAGTTTCGG	0.888
AGATAAGAA	0.966
AGATAAGCTC	0.995
AGATAGATAG	0.957
AGATAGCCGA	0.973
AGATAGTGCA	0.99
AGATATGCCT	0.952
AGATATGTAA	1.02
AGATATTAGG	0.994
AGATATTCTG	0.999
AGATATTGC	1.01
AGATCAAGCA	0.978
AGATCACAGC	1
AGATCCGTGC	1.14
AGATCCTCAT	1.04
AGATCCTTCC	2.18
AGATCGGTTA	0.949
AGATCTTCGT	1.04
AGATGGAAAG	0.981
AGATGGAACC	0.987
AGATGGACAA	0.977
AGATGGGAG	0.955
AGATGTAAGA	1.01
AGATGTAATA	1.03
AGATGTGCCC	0.972
AGATGTGTGC	1.03

Sequence	switch fluorescence ratio
AGATGTTTCG	1.02
AGATTAAAGC	1.07
AGATTATGAG	1.04
AGATTGACTC	1.05
AGATTGCAGC	0.992
AGATTTGGA	1.02
AGCAAAGGGT	0.987
AGCAAATGAC	2.79
AGCAACTTCG	1.01
AGCAATAAAT	1.19
AGCAATCCGG	1.49
AGCAATGAAG	1.28
AGCAATGGCC	1.94
AGCAATTAGT	1.19
AGCACACATC	1.1
AGCAGATCCA	0.947
AGCAGGGTAA	1.05
AGCAGTAATT	1.01
AGCAGTTACG	1.13
AGCAGTTAGA	0.988
AGCATAAGAC	1.91
AGCATAGCGG	0.953
AGCATAGTAA	1.05
